In paper PMC4336329 (PLoS ONE, 2015):
Hit rate of the full screen: of about 310,000 compounds, about 14,000 (4.5%) showed an effect of 50% or more. The effect is printed as a negative number. This is one part of the list.

target: human ether-à-go-go-related gene (hERG) potassium channel (human, UniProt Q12809); assay: primary screen, population patch clamp on CHO cells stably expressing hERG
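Note: peak tail current of the secondary pulse compared with the same well before compound.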

human ether-à-go-go-related gene (hERG) potassium channel, sequence (Q12809 whole entry, looked up): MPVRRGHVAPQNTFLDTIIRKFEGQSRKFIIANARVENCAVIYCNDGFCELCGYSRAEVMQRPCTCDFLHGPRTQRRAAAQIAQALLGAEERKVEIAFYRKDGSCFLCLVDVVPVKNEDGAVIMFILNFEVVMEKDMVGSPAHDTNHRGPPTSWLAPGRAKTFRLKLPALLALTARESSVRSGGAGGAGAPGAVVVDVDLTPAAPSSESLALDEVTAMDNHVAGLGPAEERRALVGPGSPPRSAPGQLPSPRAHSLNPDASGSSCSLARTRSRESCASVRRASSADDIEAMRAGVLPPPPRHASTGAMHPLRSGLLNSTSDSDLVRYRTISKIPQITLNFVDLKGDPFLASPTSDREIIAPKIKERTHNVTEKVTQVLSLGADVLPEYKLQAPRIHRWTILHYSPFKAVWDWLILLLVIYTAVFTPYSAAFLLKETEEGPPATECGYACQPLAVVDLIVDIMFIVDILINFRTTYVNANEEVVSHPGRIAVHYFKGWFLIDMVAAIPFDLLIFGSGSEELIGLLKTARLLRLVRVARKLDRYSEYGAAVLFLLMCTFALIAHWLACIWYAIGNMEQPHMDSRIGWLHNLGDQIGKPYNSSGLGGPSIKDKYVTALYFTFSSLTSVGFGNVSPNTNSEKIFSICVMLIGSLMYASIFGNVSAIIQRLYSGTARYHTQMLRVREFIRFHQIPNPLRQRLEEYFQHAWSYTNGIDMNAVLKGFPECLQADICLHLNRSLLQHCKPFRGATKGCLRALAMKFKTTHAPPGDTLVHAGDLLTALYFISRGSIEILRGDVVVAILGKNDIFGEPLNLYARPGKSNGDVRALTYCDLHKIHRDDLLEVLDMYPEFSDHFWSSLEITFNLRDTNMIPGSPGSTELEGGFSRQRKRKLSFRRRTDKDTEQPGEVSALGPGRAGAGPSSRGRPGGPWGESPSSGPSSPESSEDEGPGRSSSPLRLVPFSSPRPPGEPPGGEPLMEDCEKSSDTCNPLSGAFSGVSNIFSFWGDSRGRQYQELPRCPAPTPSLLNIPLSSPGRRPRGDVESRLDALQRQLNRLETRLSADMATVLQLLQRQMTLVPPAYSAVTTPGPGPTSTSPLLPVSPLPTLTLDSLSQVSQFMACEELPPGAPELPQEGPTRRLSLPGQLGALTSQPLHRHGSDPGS

Structure (SMILES)	hERG current change (%, negative = inhibition) at 10uM [%]
S=C(Nc1ccc(Cl)cc1)c1nc2ccccc2[nH]1	17.6
O=C(O)c1ccccc1C(=O)Nc1cc(C(F)(F)F)ccc1N1CCCC1	-3.78
COC(=O)CN(c1nc(C)c(Br)c(OC)n1)S(=O)(=O)c1ccc(C)cc1	-9.43
CC(C)[C@H](NC(=O)OC(C)(C)C)c1nnc(SCc2cccc(F)c2)o1	-43.1
COc1cc(C(=O)Nc2c(C)cc(C)cc2C)c([N+](=O)[O-])cc1OC	5.56
Cc1ccccc1N(CC(=O)NC1CCCC1)C(=O)C1(C)CC(=O)N=C2C=CC=CN21 (centres unmarked)	18.5
O=C(CSc1n[nH]c(-c2ccncc2)n1)Nc1ccc(Cl)c(Cl)c1	-7.17
COc1ccc(Nc2nc(-c3ccccc3)nc3ccccc23)cc1.Cl	10.8
CC(C)C(C(=O)N1CCOCC1)N1C(=O)c2ccccc2C1=O (centres unmarked)	3.41
Nc1cc(C(=O)O)c(N)c2c1C(=O)c1ccccc1C2=O	7.98
Cc1cc(=O)oc2cc(OCC(=O)N3CCC(C(N)=O)CC3)ccc12	4.72
COCCNC(=S)Nc1ccc(N2CCOCC2)c(S(=O)(=O)Nc2ccccc2OC)c1	-14.9
COc1ccc(OC)c(CN2CCN(C(=O)CCC(=O)c3cccs3)CC2)c1	-19.4
C=CCSc1nnc(COc2ccc(=O)n(-c3ccccc3)n2)n1CC	-2.15
O=C(NC1CCCCCC1)c1ccc(N2CCCC2=O)cc1	2.01
c1ccc(OCc2nnc3sc(-c4cccs4)nn23)cc1	5.59
CCOCCCn1c(N)c(C(=O)Nc2sc3c(c2C(=O)OC)CCCC3)c2nc3ccccc3nc21	4.07
CCOc1cc(CN2CCCC(CNC(=O)c3ccc(F)cc3)C2)ccc1OC (centres unmarked)	-66.2
CCCCN(Cc1ccccc1)C(=O)C1CCCN(S(=O)(=O)c2cnc[nH]2)C1 (centres unmarked)	-4.62

Structure (SMILES)	hERG current change (%, negative = inhibition) at 10uM [%]
COc1cccc(Oc2ccc(OC)cc2C(=O)O)c1	17.2
Cn1c(-c2ccccc2)cc2onc(-c3ccccc3)c2c1=O	18.1
C=CCn1cc(C=C2C(=O)NC(=O)NC2=O)c2ccccc21	9.62
CCOCCCNC(=O)Cn1cc2c(n1)CCCCC2	0.733
Cc1cc(C)n(-c2nc3c(c(=O)n(C)c(=O)n3C)n2CCO)n1	8.67
Cc1c(C)c2c(OCC(=O)NC3CC3)cc3c(c2oc1=O)CCC(C)(C)O3	11.6
Cc1ccc(C(=O)O)cc1N1CCCC1=O	48.5
O=C(c1ccc(CSc2ccccc2)cc1)N1CCN(c2ccccc2)CC1	-11.7
Cc1cc(OCc2nn[nH]n2)c2c(C)c(Cc3ccccc3)c(=O)oc2c1	0.151
CCC(C)Oc1cc(-c2ccnc(Nc3cccc(Cl)c3)n2)ccn1 (centres unmarked)	-5.36
CCOc1ccc(NC(=O)NCCN2C(C)CCCC2C)cc1 (centres unmarked)	-26.6
O=C1CSC(c2cccnc2)N1c1ccccc1 (centres unmarked)	13
COC(C(=O)Nc1ccnn1C1CCN(C(=O)c2ccc(C=O)cc2)CC1)c1ccccc1 (centres unmarked)	-39.9
Cc1cccc(C(=O)N/N=C/c2coc3ccccc3c2=O)c1	5.39
O=C(O)c1cc(N/N=C/C=C/c2ccccc2[N+](=O)[O-])ccc1Cl	12.5
COc1ccc(-c2nc(CS(=O)(=O)CC(=O)NCc3cccc(OC)c3OC)c(C)o2)cc1	-18.4
Cn1cc(C=C(C#N)C#N)c2ccccc21	6.83
CCCOC(=O)C1[C@H]2C(=O)N(C(C)c3ccc(OC)cc3)C[C@]23C=C[C@H]1O3 (some centres unmarked)	1.3
O=C1c2ccccc2C(=O)N1Cc1nc2ccccc2o1	22.5

Structure (SMILES)	hERG current change (%, negative = inhibition) at 10uM [%]
Cc1cc(=O)oc2cc(OC(=O)c3nn(C(C)C)c(=O)c4ccccc34)ccc12	10.1
COC(=O)c1ccccc1S(=O)(=O)N1CCC(C(=O)NC2=NCCS2)CC1	-32.8
Cc1ccccc1S(=O)(=O)Cc1ccc(C(=O)NCCCOC(C)C)o1	-14.7
C=CCn1c(SCC2CCCCO2)nc2sc(CC)cc2c1=O (centres unmarked)	-2.19
COC1(OC)N=C(NC(=O)Nc2ccccc2)C2(C#N)C(c3ccccc3)C12C#N (centres unmarked)	14.5
CCCC(=O)OC/C(O)=C(\C#N)c1nc2ccccc2[nH]1	19.1
COc1ccc(CCNC(=O)CCS(=O)(=O)c2ccc3c(c2)NC(=O)CO3)cc1OC	14.5
COC(=O)c1nc(-c2ccc3c(n2)C(=O)C(N)=C(OC)C3=O)c(N)c(-c2ccc(OC)c(OC)c2O)c1C	11.8
ONC(=Nc1ccc(Cl)cc1)c1ccccc1Cl	-20.1
O=C(ON=C1CCN(S(=O)(=O)c2ccccc2)CC1)c1cccc(Cl)c1	0.716
Cc1cc(C(=O)NN=C(Cc2ccccc2)Cc2ccccc2)c(C)o1	1.42
COC(=O)C1=C(c2ccc(F)cc2F)C[C@@H]2CC[C@H]1N2C(=O)N1CCOCC1	0.813
Cc1ccc(C(C)(C)C)c(SCC(=O)Nc2nnc(C)s2)c1	2.81
COC(=O)c1ccc(CSc2nnc(C)s2)cc1	8.93
COc1ccc(Cn2c(O)c(/C=N/NC(=O)c3ccccc3)c(=O)[nH]c2=O)cc1	13.1
COc1ccccc1OCCCCn1ncc2ccc(OC)c(OC)c2c1=O	10.4
O=C(CN1C(=O)CN=C(c2ccccc2Cl)c2cc(Cl)ccc21)NCc1ccco1	3.75
O=C(Cn1nc(C(=O)O)c2ccccc2c1=O)Nc1ccc2c(c1)C(=O)c1ccccc1C2=O	12.5
